Data reported in PubChem BioAssay AID504832 (National Center for Advancing Translational Sciences (NCATS), 2011).
Out of some 310,000 compounds screened, about 18,000 (5.8%) were called active. Inconclusive results, whose numbers are uncertain, are shown with a selection of clear calls. Calls come from the whole dose curve; as a rule, active = well fitted inhibition curve with a large enough effect; inconclusive = small, poorly fitted or top-dose-only effect, or another doubt; inactive = no such curve, though single readings can be large or run the other way. No potency is given beside an inconclusive call; the fits are too rough.
% is set by controls: 0 for no effect and ±100 for the full control effect; potency is the fitted concentration of half-maximal effect; tags give direction and shape of the fitted curve.

Experiment: Primary qHTS for delayed death inhibitors of the malarial parasite plastid, 48 hour incubation
Conditions: P. falciparum luciferase growth in erythrocytes; series mostly up to 28.7 µM; activity change, negative = inhibition: at the top concentration
Outline: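 Here the parasites carry a stable luciferase gene and grow inside erythrocytes in Albumax-based RPMI medium with compound for one erythrocytic cycle. Activity is scored as loss of luminescent signal.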
For `CCOc1ccccc1NC(=O)c1ccc(S(=O)(=O)N2CCOCC2)cc1`, the “activity change, negative = inhibition” value was inactive: 0.76%. For `CN1CCN(S(=O)(=O)c2ccc(CNC(=O)c3ccccc3)s2)CC1`, the “activity change, negative = inhibition” value was inactive: -15.7%. In the case of `COc1ccccc1C(=O)COC(=O)c1cc(S(=O)(=O)N2CCCCC2)ccc1N1CCOCC1`, the Potency is reported as active: 9.28 µM. In the case of `CCC1CCCCN1CC(=O)Nc1cc(C)nn1-c1nc(C)cc(C)n1` (stereo unspecified), the Potency is reported as active: 5.22 µM. In the case of `COc1ccc(Cc2nnc(SCC(=O)N(c3ccccc3)C(C)C)n(N)c2=O)cc1`, the Potency is reported as inconclusive [inhibitor, single point]. For `CCN(CC)C(=O)/C(=C\c1ccc(Br)cc1)NC(=O)c1ccccc1OC`, the Potency was inconclusive [inhibitor, partial curve, poor fit]. In the case of `COC(=O)C(Cc1c[nH]c2ccccc12)NC(=O)c1cccc(S(=O)(=O)N2CCCCC2)c1` (stereo unspecified), the Potency is reported as inconclusive [inhibitor, single point]. With `CC(=O)Nc1ccc(SC[C@H](C)CN2CC[C@H](C(C)(C)C)CCC2=O)cc1` the Potency was inconclusive [inhibitor, partial curve]. For `CCCCc1nc2ccccc2c(=O)n1-c1ccccc1[N+](=O)[O-]`, the Potency was inconclusive [inhibitor, partial curve, poor fit]. With `O=C(COC(=O)c1cc(-c2cccs2)nn1-c1ccccc1)Nc1cccc([N+](=O)[O-])c1` the “activity change, negative = inhibition” value was inactive: -0.669%. For `COc1ccc(NS(=O)(=O)c2cccc(NC(=O)c3ccc(Cl)nc3)c2)cc1`, the Potency was inconclusive [inhibitor, partial curve, poor fit]. With `COc1ccc(CNC(=O)CSc2nc3cccnc3s2)cc1` the “activity change, negative = inhibition” value was inactive: 87.2%. For `COc1cc(C(C)=O)ccc1OCCCOc1cccc2cccnc12`, the “activity change, negative = inhibition” value was inactive: -7.84%. With `CC1CCC(NC(=O)c2ccc3c(c2)OCO3)CC1` (stereo unspecified) the “activity change, negative = inhibition” value was inactive: 195%. With `CSc1ccc(-c2sc(Nc3cccc4ccccc34)n[n+]2-c2ccccc2)cc1` the Potency was inconclusive [inhibitor, partial curve]. For `COc1cc2c(cc1OC)C(=O)Cc1ccc3c(c1CN(C)CC2)OCO3`, the Potency was active: 9.28 µM. In the case of `COc1ccc2nc(Nc3nc(CSc4nc5ccccc5[nH]4)cc(=O)[nH]3)nc(C)c2c1`, the Potency is reported as inconclusive [inhibitor, single point]. For `CCOc1ccc(C(=O)OCC(=O)N2CCCC2)cc1`, the “activity change, negative = inhibition” value was inactive: 57.9%. For `CCCCCCNc1nc(OC)nc(N2CC3CC(C2)c2cccc(=O)n2C3)n1` (stereo unspecified), the Potency was active: 8.28 µM. With `CC1CC(C)C[N+](=C2C=C(N3CCCC3)CC(C)(C)C2)C1` (stereo unspecified) the Potency was active: 0.37 µM. With `COc1cc2ccccc2cc1C(=O)NC(=S)Nc1cccc(C(=O)O)c1C` the “activity change, negative = inhibition” value was inactive: 10.8%. In the case of `O=C(CCCCCCC(=O)NCc1ccccc1)NCc1ccccc1`, the “activity change, negative = inhibition” value is reported as inactive: -12%. In the case of `Cc1cccc(-c2cc3nc(-c4ccccc4)cc(=O)n3[nH]2)c1`, the “activity change, negative = inhibition” value is reported as inactive: 7.55%. In the case of `CC1(C)N=C(N)N=C(N)N1c1ccc(F)cc1F`, the Potency is reported as inconclusive [inhibitor, full curve]. For `CC1(C)CC(=O)C2=C(C1)N1C(=C(C#N)C2c2ccccc2Cl)N=C(N)c2ccccc21` (stereo unspecified), the Potency was active: 13.1 µM. With `CN(Cc1ccc(F)cc1)C(=O)c1cc(COc2ccc(-n3cncn3)cc2)on1` the “activity change, negative = inhibition” value was inactive: 3.72%. In the case of `CCOC(=O)c1ccccc1NC(=O)COc1coc(CN2CCc3ccccc32)cc1=O`, the Potency is reported as inconclusive [inhibitor, single point]. With `COc1ccc(CCC(=O)NNC(=S)NCc2ccc(F)cc2)cc1` the Potency was inconclusive [inhibitor, partial curve, poor fit]. For `CC1CCCCC12NC(=O)N(CC(=O)Nc1ccc3[nH]c(=O)[nH]c3c1)C2=O` (stereo unspecified), the “activity change, negative = inhibition” value was inactive: 7.01%. With `CC(C)Cn1cc(C(=O)NCc2cccs2)c2c3ccccc3n(C)c2c1=O` the Potency was inconclusive [inhibitor, partial curve]. For `Cc1nnc(N2CCC(C(=O)N3CCCCCC3)CC2)c2nn(-c3ccc(Cl)cc3)c(C)c12`, the Potency was inconclusive [inhibitor, single point]. With `O=C(Nc1nc(-c2ccccn2)cs1)C1COc2ccccc2O1` (stereo unspecified) the Potency was active: 8.28 µM. For `CN(C)c1cccc(C(=O)OCC(=O)N(Cc2ccccc2)C2CCS(=O)(=O)C2)c1` (stereo unspecified), the Potency was inconclusive [inhibitor, full curve, poor fit]. For `O=C(C1CCCN(S(=O)(=O)c2ccc(F)cc2)C1)N(Cc1cccs1)C1CC1` (stereo unspecified), the Potency was inconclusive [inhibitor, partial curve]. For `CCOC(=O)c1cn(-c2ccccc2)nc1-c1ccncc1`, the Potency was inconclusive [inhibitor, full curve, poor fit]. In the case of `COc1ccc(N2C(=O)c3ccc(C(=O)Nc4ccc(NC(C)=O)cc4)cc3C2=O)cc1`, the Potency is reported as inconclusive [inhibitor, partial curve, poor fit].
